From publication PMC4336329 (PLoS ONE, 2015)
Hit rate of the full screen: of about 310,000 compounds, about 2,200 (0.71%) showed an effect of 50% or more. The effect is printed as a negative number. The list shows a part of the results.

target: human ether-à-go-go-related gene (hERG) potassium channel (human, UniProt Q12809); assay: primary screen, population patch clamp on CHO cells stably expressing hERG
Sequence (Q12809 whole entry, looked up): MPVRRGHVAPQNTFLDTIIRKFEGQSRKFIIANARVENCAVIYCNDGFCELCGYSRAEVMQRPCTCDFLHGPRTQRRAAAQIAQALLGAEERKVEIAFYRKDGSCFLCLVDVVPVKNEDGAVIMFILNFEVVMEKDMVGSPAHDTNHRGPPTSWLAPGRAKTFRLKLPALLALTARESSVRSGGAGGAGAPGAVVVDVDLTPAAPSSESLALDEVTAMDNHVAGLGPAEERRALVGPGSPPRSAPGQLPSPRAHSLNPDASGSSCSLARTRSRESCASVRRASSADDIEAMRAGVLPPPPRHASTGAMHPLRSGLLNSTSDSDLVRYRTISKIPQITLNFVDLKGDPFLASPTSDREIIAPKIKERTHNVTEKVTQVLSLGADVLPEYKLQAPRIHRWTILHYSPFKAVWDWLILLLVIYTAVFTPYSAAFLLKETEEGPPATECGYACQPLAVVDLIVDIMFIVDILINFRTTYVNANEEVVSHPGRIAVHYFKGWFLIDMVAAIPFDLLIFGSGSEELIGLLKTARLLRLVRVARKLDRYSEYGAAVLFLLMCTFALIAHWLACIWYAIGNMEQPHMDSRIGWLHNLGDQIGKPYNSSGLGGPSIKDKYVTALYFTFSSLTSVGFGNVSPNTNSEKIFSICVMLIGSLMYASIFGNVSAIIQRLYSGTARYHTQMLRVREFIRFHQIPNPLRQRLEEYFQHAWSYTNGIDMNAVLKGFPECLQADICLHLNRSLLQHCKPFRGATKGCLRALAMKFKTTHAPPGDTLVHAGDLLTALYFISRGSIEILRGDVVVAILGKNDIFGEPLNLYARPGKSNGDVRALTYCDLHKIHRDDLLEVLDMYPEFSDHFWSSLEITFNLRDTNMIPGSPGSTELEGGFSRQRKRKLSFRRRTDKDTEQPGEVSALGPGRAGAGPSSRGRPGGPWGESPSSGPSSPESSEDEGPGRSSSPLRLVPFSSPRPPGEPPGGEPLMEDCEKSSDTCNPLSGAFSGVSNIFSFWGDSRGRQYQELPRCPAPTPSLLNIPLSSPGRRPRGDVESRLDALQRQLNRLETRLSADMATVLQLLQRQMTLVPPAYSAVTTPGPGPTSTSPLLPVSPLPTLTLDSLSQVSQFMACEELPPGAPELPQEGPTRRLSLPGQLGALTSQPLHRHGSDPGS

SMILES	hERG current change (%, negative = inhibition) at 1uM
COc1ccc(N2CCN(Cc3nc4ccccc4n3C)CC2)cc1	1.75%
COc1ccc(S(=O)(=O)NCCSCc2ccco2)cc1Cl	9.28%
CCCCn1c(N)c(N(CCOC)C(=O)CSc2n[nH]c(-c3ccc(OC)cc3)n2)c(=O)[nH]c1=O	8.98%
CCN(C(=O)COC(=O)c1c(NC(C)=O)sc(C)c1C)C1CCS(=O)(=O)C1 (centres unmarked)	2.35%
Cc1cccc(C)c1N=Cc1c(O)n(-c2nccs2)c(=O)c2ccccc12	7.89%
CCOc1cc(N2CCOCC2)c(OCC)cc1NC(=O)C(NC(=O)c1ccco1)C(C)C (centres unmarked)	6.38%
CCN1C(=O)C(CC(=O)NC)N(NC(=O)c2ccccc2)C1=S (centres unmarked)	-5.12%
COc1ccc(C(Nc2ccc(S(=O)(=O)NCC3CCCO3)cc2)C(=O)NC(C)(C)C)cc1OC (centres unmarked)	12.2%
O=C(COc1ccc(-c2nnc(N3CCCCC3)c3ccccc23)cc1)N1CCCCC1	1.74%
CC1(C(=O)OCC(=O)NC(=O)NCc2ccccc2)CC1(Cl)Cl (centres unmarked)	9.76%
CCOC(=O)C1(Cc2ccccc2C(F)(F)F)CCN(C2CCCC2)CC1	-6.3%
Nc1nc(SCC(=O)NCc2ccccc2Cl)[nH]c(=O)c1NC(=O)c1ccccc1F	8.82%
Cn1c(=O)n(C)c2cc(NC(=O)CSc3nnc(-c4ccccc4O)n3-c3ccccc3)ccc21	6.95%
O=C1c2ccccc2CN1CCNC(=S)NC1CCCCC1	11.9%
O=C(CN(CCc1ccccc1)Cc1ccccc1)Oc1ccccc1P(=O)(O)O	3.81%
Cc1c(NC(=O)CCCCCN2C(=O)C3C4C=CC(C4)C3C2=O)c(=O)n(-c2ccccc2)n1C (centres unmarked)	9.79%
CCOC(=O)C1CCN(c2ncnc3c2oc2ccc(Cl)cc23)CC1	0.808%
CCCOc1ccc(CSC(=N)N)cc1C(=O)OC.Cl	14%
COc1ccccc1C(=O)COC(=O)Cn1[nH]c(=O)c2ccccc2c1=O	10.2%
CCOC(=O)Cn1cnc2c(cnn2-c2ccc(Cl)cc2)c1=O	11.6%
O=C(NC1CCCCC1)c1n[nH]c2c1CC(c1ccccc1)CC2 (centres unmarked)	14.7%
CC1CN(C(=O)CCC(=O)NCCCN2CCC(Cc3ccccc3)CC2)c2cc(Cl)ccc2O1 (centres unmarked)	-62.2%
Cn1c(=O)c2c(nc3n2CC(O)CN3c2ccccc2)n(C)c1=O (centres unmarked)	15.8%
